The campaign covered roughly 48,000 compounds. About 1,200 (2.5%) were called active. About 2% were inconclusive and are not listed.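 How the source made its calls: active means activation of at least 60% and not above a set upper limit (about 1 call in 100 departs from these limits); inconclusive means activation of 40% to 60%, or above that upper limit; inactive means activation under 40%.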 The list shows a part of the results.

The target of the test is Probable G-protein coupled receptor 32 (Homo sapiens) (UniProt O75388). As to the kind of experiment: qHTS for Agonists of Human Resolvin D1 Receptor DRV1. Further: 0% is about no effect. As to conditions: CHO-K1 GPR32 beta-arrestin PathHunter luminescence, 90 min; at 76.9 µM; hits give high values; zero percent set by DMSO-only wells. A digest of the protocol: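 Agonism was scored by beta-Gal fragment complementation (chemiluminescent read, 1 h detection at ambient temperature) reporting beta-arrestin binding to GPR32 in engineered CHO-K1 cells. Compound treatment lasted 90 min at 37 C, normalized to a DMSO basal control.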
Sequence of UniProt O75388 (O75388 whole entry, looked up, the tested form may be a part): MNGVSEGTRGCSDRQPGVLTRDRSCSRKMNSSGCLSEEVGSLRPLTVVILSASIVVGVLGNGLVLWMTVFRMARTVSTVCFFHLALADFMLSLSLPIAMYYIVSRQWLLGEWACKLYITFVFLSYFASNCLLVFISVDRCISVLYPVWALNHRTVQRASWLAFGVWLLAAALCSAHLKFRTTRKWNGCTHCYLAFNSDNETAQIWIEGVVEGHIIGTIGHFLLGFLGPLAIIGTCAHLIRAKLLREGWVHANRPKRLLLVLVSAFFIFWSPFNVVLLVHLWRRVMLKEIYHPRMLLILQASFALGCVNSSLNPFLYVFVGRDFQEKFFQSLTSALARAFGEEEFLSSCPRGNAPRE
(In general: In qHTS, concentration-response curves come from the screen itself.)
Consider `COc1ccc(C(=O)NCCn2cc(SCC(=O)NCCc3ccc(OC)c(OC)c3)c3ccccc32)cc1`, for which the activation was inactive: 43.1%.

Turning to `Cc1ccc(NC(=O)Cn2c(=O)c3cc(Cl)ccc3n3nncc23)cc1`, the activation was inactive: 17.9%.

For the compound `Cc1n[nH]c(C)c1S(=O)(=O)N(CC(=O)NC(C)c1ccccc1)c1ccc(C(C)C)cc1` (stereo not drawn), the activation is inactive: 48.1%. Next, `COCCCNC(=O)CN1C(=O)COc2ccc(S(=O)(=O)N3CCCC3)cc21`: inactive: -4.66%; `CC1=C(c2ccc(C)c(C)c2)S(=O)(=O)N=C1N1CCC(C(=O)NCCc2ccco2)CC1`: inactive: -6.51%; `Cc1ccc(-c2cc(C(=O)N3CCN(S(=O)(=O)c4ccc(Br)cc4)CC3)[nH]n2)cc1C`: inactive: -19.3%. With `CS(=O)(=O)N1CCc2cc(C(=O)NCCc3ccccc3)ccc21`, the activation was inactive: 8.23%. Next, `COc1ccccc1N1CCN(C(=O)CCNS(=O)(=O)c2ccc3c(c2)CCN3C(=O)C2CC2)CC1`: inactive: 36%; `Cc1ccc(CNC(=O)Cn2cc(S(=O)(=O)Cc3ccccc3F)c3ccccc32)cc1`: inactive: -8.68%; `COc1ccc(Cl)cc1NC(=O)CSC1=Nc2ccccc2C2=NC(CC(=O)NCc3ccc4c(c3)OCO4)C(=O)N12` (stereo not drawn): inactive: -16%. Next, `Cc1ccc(NC(=O)c2cnc(SCC(=O)Nc3cc(C)on3)n(C)c2=O)cc1`: inactive: -7.88%; `CCn1c(=O)n(CC)c2cc(N3CCCCC3)c(NC(=O)Nc3ccccc3C(F)(F)F)cc21`: inactive: -30.7%; `Cc1cc(C)n2nc(SCC(=O)Nc3cccc(C(F)(F)F)c3)nc2n1`: active: 61.5%. In the case of `COc1ccccc1C(=O)Nc1ccc2c(c1)nc(CN1CCCCC1)n2C`, the activation was inactive: -7.48%. Regarding `C=CCc1ccccc1OCC(O)CN1CCN(c2ccccc2)CC1` (stereo not drawn), the activation was inactive: -25.1%. Next, `CCOC(=O)c1ccc(NC(=O)CC2C(=O)N(c3cccc(OC)c3)C(=O)N2Cc2ccc(OC)cc2)cc1` (stereo not drawn): inactive: 1.01%.

Regarding `CCc1ccccc1NC(=O)c1cnc2sc(N3CCOCC3)nn2c1=O`, the activation was inactive: -0.755%. Take `CCC(Oc1ccc(F)cc1)C(=O)Nc1nc(-c2ccc(F)cc2)ns1` (stereo not drawn): the activation was inactive: 22.6%. For the compound `COc1ccc(C(CC(=O)NCc2ccccc2)N2Cc3ccccc3C2=O)cc1` (stereo not drawn), the activation is inactive: -16.3%. In the case of `Cc1ccccc1NC(=O)CSc1nc(=O)n(CCN2CCOCC2)c2c1CCC2`, the activation was inactive: -2.26%. For `CN(Cc1ccccc1)C(=O)CSc1nc2ccccc2n1Cc1ccccc1F` the value was inactive: -34.4%; for `CC(C)c1cnc2c(c1SCC(=O)NCc1ccccc1)c(=O)n(C)c(=O)n2C`, inactive: -25.6%; for `Cc1ccc(-c2nc3ccc(Cl)cn3c2Nc2ccccc2C)s1`, inactive: -30.2%. For `COc1ccccc1Cc1nc2ccccc2nc1SCC(=O)Nc1cccc(Cl)c1C` the value was inactive: -8.37%; for `COC(=O)c1ccc(NC(=O)CCc2c(C)nc3c(c2C)c(=O)n(C)c(=O)n3C)cc1`, inactive: -7.86%. Next, `Cc1sc2c(c1C)c(=O)n(-c1cccc(C(F)(F)F)c1)c(=O)n2Cc1ccc(F)cc1`: inactive: -1.01%; `COc1cc(NC(=O)CSC2=Nc3ccccc3N=C(c3ccc(F)cc3)C2)cc(OC)c1`: inactive: -3.38%; `COc1ccc(CNC(=O)c2cnc3cc(C)ccn3c2=O)cc1`: inactive: 17.2%. In the case of `NC(=O)c1ccccc1`, the activation is inactive: -8.5%. Next, `CCc1ccc(N(CC)C(=O)Cn2c(=O)oc3ccccc32)cc1`: inactive: -10.6%.

As for `Cc1ccnc(NS(=O)(=O)c2cc(-c3cc(C)no3)ccc2C)c1`, the activation was inactive: -2.34%. For `Cc1ccc(-n2ncc(C(=O)Nc3ccc4c(c3)OCO4)c2C2CCN(C(=O)OC(C)(C)C)CC2)cc1` the value was inactive: -26.6%; for `Cc1nc2scc(C)n2c(=O)c1S(=O)(=O)Nc1ccc(N2CCOCC2)cc1`, inactive: 4.86%; for `COc1cccc2cc(C(=O)NCCc3c(C)[nH]c4ccc(Br)cc34)c(=O)oc12`, inactive: 6.09%. For `Cc1nn(S(=O)(=O)c2ccc(F)cc2)c(C)c1S(=O)(=O)N1CCC(C)CC1` the value was inactive: 39.2%. Take `COc1ccc(NC(=O)C2CCCN(S(=O)(=O)c3ccc4c(c3)CCCC(=O)N4)C2)c(OC)c1` (stereo not drawn): the activation was inactive: 24.2%. For `CC(=O)c1cccc(NC(=O)CCS(=O)(=O)c2ccc(Br)s2)c1` the value was inactive: 12.6%; for `O=C(CN1C(=O)CC(c2ccccc2)Sc2ccccc21)Nc1cccc(Cl)c1` (stereo not drawn), inactive: -0.62%; for `Cc1ccc(S(=O)(=O)c2cn(Cc3ccc(F)cc3)c3cc(F)c(F)cc3c2=O)cc1`, inactive: -22%. Next, `CCOC(=O)c1cc2c(=O)n3ccccc3nc2n(CC(C)C)c1=NC(=O)c1cc2ccccc2o1`: inactive: -18.2%; `COc1ccc(/C=C/C(=O)Nc2nc3n(n2)C(c2ccccc2)C=C(c2ccccc2)N3)cc1` (stereo not drawn): inactive: -11.2%; `Cc1ccc(-c2cnc(NCc3ccc(C(F)(F)F)cc3)n2C)cc1`: inactive: -35.7%. As for `CCN(C(=O)Cn1c(=O)oc2cc(Cl)ccc21)c1cccc(C(F)(F)F)c1`, the activation is inactive: -17%. Next, `Cc1ccc(CCNC(=O)C2CCN(c3nnc(-n4cccc4CNc4ccc(C)cc4)s3)CC2)cc1`: inactive: -36.9%; `CC(C)(C)NC(=O)c1cnn2c(C(F)F)cc(-c3ccccc3)nc12`: inactive: -16%.

As to `CN1C(=O)C2(c3ccccc31)N(c1cccc(F)c1)C(=O)CS2(=O)=O` (stereo not drawn), the activation was inactive: -10.4%. Regarding `COCCCNC(=O)c1cc(-c2cccnc2)nc2ccc(S(=O)(=O)N3CCC(C)CC3)cc12`, the activation was inactive: -5.94%. On to `O=C(NCc1ccccc1Cl)c1cnc2sc(N3CCCCC3)nn2c1=O`, for which the activation was inactive: 10.9%. Next, `COc1ccc(Cl)cc1NC(=O)c1c(NCc2sccc2C)sc2c1CCCC2`: inactive: -1.68%; `Clc1ccccc1CNc1nc2ccccc2c2nc(-c3cccnc3)nn12`: inactive: -8.01%. `O=S(=O)(c1ccc(Br)cc1)c1nc(-c2cccs2)oc1SCc1ccccc1F`: the activation was inactive: -11.7%. For `COc1ccc(OC)c(CNS(=O)(=O)c2c(C(=O)N3CCCCCC3)c(C)n(C)c2C)c1` the value was inactive: -9.07%; for `O=C(Cn1nnc(-c2ccc(Cl)cc2)n1)NCc1ccc(F)cc1`, inactive: 1.48%.
